According to PubChem BioAssay AID2451 (National Center for Advancing Translational Sciences (NCATS), 2010):
About 2,100 (0.72%) of roughly 290,000 compounds were called active. Inconclusive means that the source gave no clear call. Such entries were picked first, then a sample of the others. The call rests on the fitted dose curve; in most records, active means well fitted inhibition curve with a large enough effect; inconclusive means small, poorly fitted or top-dose-only effect, or effect the other way; inactive means flat fitted curve, though single readings scatter. Potencies beside an inconclusive call are fits to weak or partial responses and may not hold up.

molecular target: Fructose-bisphosphate aldolase (Giardia intestinalis (strain ATCC 50803 / WB clone C6)) (UniProt A8B2U2); assay: qHTS Assay for Inhibitors of Fructose-1,6-bisphosphate Aldolase from Giardia Lamblia; details: purified Giardia FBPA; activity, negative = inhibition: at 59.6 µM (top of the series) unless noted; further: nearly all actives have a fitted effect of over 55% in size
Chain of UniProt A8B2U2 (A8B2U2 whole entry, looked up): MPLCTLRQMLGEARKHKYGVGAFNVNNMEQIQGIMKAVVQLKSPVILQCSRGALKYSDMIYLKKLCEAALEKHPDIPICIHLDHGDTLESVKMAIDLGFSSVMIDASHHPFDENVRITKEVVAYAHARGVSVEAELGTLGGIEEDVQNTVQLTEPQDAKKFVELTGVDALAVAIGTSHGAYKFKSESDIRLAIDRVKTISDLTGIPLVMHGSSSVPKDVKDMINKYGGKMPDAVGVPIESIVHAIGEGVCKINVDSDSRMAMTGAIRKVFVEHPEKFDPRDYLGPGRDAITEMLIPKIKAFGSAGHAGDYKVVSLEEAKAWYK
Outline: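 40 nM FBPA preincubated 10 min at RT with compound (up to 57.5 uM final), then substrate plus GAPDH/TPI/NAD/arsenate coupling and diaphorase/resazurin added. Fluorescence read after 20 min at RT, 525/598 nm.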
On the % scale 0 is the no-effect control and ±100 the full control effect; potency means the concentration at half of the fitted maximal effect; tags describe the fitted curve by direction and shape.

Compound | Potency | activity, negative = inhibition
C=CCNC(=S)Nc1sc2c(c1C(N)=O)CCCC2 | inconclusive: 17.7 µM [inhibitor, partial curve] | –
CCN1C(=O)N(C)[C@@H](c2ccccc2)C(C(=O)OC)=C1C | inactive | –
COCc1cc(=O)[nH]c(-c2csc(C)n2)n1 | active: 4.46 µM | –
O=C(Nc1cc(Cl)cc(Cl)c1)C(NCC1CCCO1)c1ccccc1 (stereo not drawn) | inconclusive: 19.9 µM [activator, single point] | –
O=C(/C=C/c1ccc2c(c1)OCO2)Nc1nncs1 | – | inactive: 8.54%
O=[N+]([O-])c1cc2c(cc1CN1CCN(CCOCCO)CC1)OCO2 | active: 10 µM | –
Cc1sc2nc(CN3CCOCC3)nc(N3CCOCC3)c2c1C | inconclusive: 15.8 µM [inhibitor, partial curve] | –
COc1ccc(CCNCC(=O)Nc2ccc(OC(F)(F)F)cc2)cc1OC | inconclusive: 15.8 µM [inhibitor, partial curve] | –
Cc1cc(C)cc(NC(=O)C2C3C=CC(O3)C2C(=O)O)c1 (stereo not drawn) | – | inactive: -4.28%
CCOc1cc(C(=O)NCc2ccncc2)cc(OCC)c1OCC | inconclusive: 22.3 µM [activator, partial curve] | –
Cc1ccc(NC(=O)c2ccc3c(c2)OCO3)cc1Cl | – | inactive: -0.777%
O=[N+]([O-])c1ccc(Sc2cccc3cccnc23)cc1 | inconclusive: 17.7 µM [inhibitor, partial curve] | –
Cc1ccc(OCCOCCN2CCN(C)CC2)c(C(C)(C)C)c1 | active: 12.6 µM | –
Oc1ccc2c(c1)[C@@]13CCCCC1[C@@H](C2)N(CC1CCC1)CC3 (stereo partly drawn) | – | inactive: -5.79%
Nc1ccccc1SCc1ccccc1Cl | – | inactive: -10.2%
CCCCCCCCCCCCCCCCOC[C@H](COP(=O)([O-])OCC[N+](C)(C)C)OC(=O)CCCCCCCC(=O)O | – | inactive: 27%
COc1cc(C(=O)ON=C2C=C(C)C(=O)C(C)=C2)cc(OC)c1OC | inconclusive: 5.61 µM [inhibitor, partial curve] | –
NC(=O)c1c(NC(=O)c2cc3ccccc3o2)sc2c1CCC2 | – | inactive: -2.35%
CCCCOC(=O)CCc1nc2ccccc2[nH]1 | – | inactive: -19.6%
O=C(O)c1nn(-c2cccc(C(F)(F)F)c2)ccc1=O | – | inactive: -0.181%
CC(C)Nc1ccc(C(CC(N)=O)NC(=O)c2ccc(Br)cc2)cc1[N+](=O)[O-] (stereo not drawn) | – | inactive: -1.34%
Nc1ccc2[nH]ncc2c1 | inconclusive: 3.54 µM [inhibitor, full curve] | –
COc1ccccc1-n1c(SCC(=O)NCc2ccc3c(c2)OCO3)nc2cc([N+](=O)[O-])ccc21 | inconclusive: 15.8 µM [inhibitor, partial curve] | –
COc1ccc(NCCc2ccccn2)cc1 | inconclusive: 8.91 µM [inhibitor, partial curve] | –
CCC(C)n1c(=S)[nH]c2ccccc2c1=O (stereo not drawn) | inconclusive: 15.8 µM [inhibitor, single point] | –
O=c1nc2ccccc2c2n1CC(CN1CCN(C(c3ccccc3)c3ccccc3)CC1)N2 (stereo not drawn) | – | inactive: -1.58%
Cc1n[nH]c(=O)nc1N1CCc2ccccc2C1 | – | inactive: 2.89%

Compound | Potency | activity, negative = inhibition
COc1cc(/C=C2/C(C)=C(C#N)c3nc(N)c(C#N)c(C)c32)ccc1OCC(=O)O | inconclusive: 15.8 µM [inhibitor, partial curve] | –
Cc1ccc(NC(=S)NC(=O)C2CCC2)cc1C | – | inactive: 2.54%
NNC(=O)c1cc(O)c(O)c(O)c1 | inconclusive: 15.8 µM [inhibitor, partial curve] | –
O=C(c1ccc2c(=O)n(C3CCCC3)c(=S)[nH]c2c1)N1CCCCCC1 | active: 17.7 µM | –
O=C(N/N=C(\c1ccccc1)c1ccccn1)c1cccc([N+](=O)[O-])c1 | inconclusive: 22.3 µM [inhibitor, single point] | –
C=CCOC(=O)c1c(C)nc2cc3c(cc2c1C)OCO3 | – | inactive: -8.78%
COc1ccc(-c2c(C)oc3c(CN4CCCCC4C)c(O)ccc3c2=O)cc1OC (stereo not drawn) | – | inactive: 0.0618%
Cc1cccc(Cn2nc(C(C)(C)C)cc2C(=O)Nc2ccc(F)cc2)c1 | – | inactive: -7.95%
COc1ccc(CCNCC(=O)Nc2ccc(C(=O)N3CCCCC3)cc2)cc1 | inconclusive: 11.2 µM [inhibitor, single point] | –
C=CCc1cc(Cl)ccc1OCCCNC(C)CC (stereo not drawn) | – | inactive: -17.7%
c1ccc(N2CCN(c3nnc(Cc4cccnc4)c4ccccc34)CC2)nc1 | – | inactive: 0.116%
COc1ccc2nc(-c3ccccc3)nc(SCC(=O)NCC3CCCO3)c2c1 (stereo not drawn) | – | inactive: 11.4%
O=C(/C=C/c1c(F)cccc1Cl)N1CCc2ccccc2C1 | – | inactive: 3.11%
O=C(NNC(=S)Nc1ccc(Cl)cc1)c1ccccc1OC(F)F | inconclusive: 31.5 µM [activator, single point] | –
CCOc1cnc(C(=O)NNC(=O)C(Br)C(C)C)o1 (stereo not drawn) | inconclusive: 19.9 µM [inhibitor, partial curve] | –
CCN1CCc2c(C#N)c(N3CCCCC3)nc(N3CCOCC3)c2C1 | inconclusive: 9.98 µM [inhibitor, partial curve] | –
CCCCN(CCCC)CCNC(=O)CSCc1ccc(C)cc1 | inconclusive: 19.9 µM [inhibitor, partial curve] | –
Cc1ccc(SCc2cn3c(C)cc(C)nc3n2)cc1 | – | inactive: -7.54%
CCOC(=O)Cn1c(=O)oc2cc(S(=O)(=O)Nc3ccc(N(CC)CC)cc3C)ccc21 | – | inactive: -16.8%
CCn1c(=O)n(CC)c2cc(N3CCCC3)c(NC(=O)c3cccc(OC)c3)cc21 | inconclusive: 39.8 µM [inhibitor, single point] | –
COc1ccc(CCNCC(=O)Nc2ccc(C)c(S(=O)(=O)N(C)C)c2)cc1OC | inconclusive: 14.1 µM [inhibitor, partial curve] | –
COc1cc(NC(=O)CN2CCN(CC(=O)Nc3ccccc3OC)CC2)cc(OC)c1 | – | inactive: -9.85%
S=C(NCCC1=CCCCC1)NCc1ccco1 | – | inactive: -4.62%
Nc1ccccc1NC1CCCCC1 | inconclusive: 14.1 µM [inhibitor, partial curve] | –
Cc1cc(C)cc(OCC(=O)N2Cc3ccccc3CC2C(=O)O)c1 (stereo not drawn) | inconclusive: 17.7 µM [activator, partial curve] | –
O=C(O)c1cc(C(=O)O)c(C(=O)N(Cc2cccc(Oc3ccccc3)c2)[C@H]2CCCc3ccccc32)cc1C(=O)O | inconclusive: 17.7 µM [activator, single point] | –
